# Where “and” joins values, the source holds several entries; their conditions need not be identical. Identical values can stand only once. Among all 410,000 compounds or so, about 530 (0.13%) were called active. This list was built around the results that the source calls inconclusive (neither active nor inactive); the mix of calls is not that of the screen. Calls come from the whole dose curve; as a rule, active = well fitted inhibition curve with a large enough effect; inconclusive = small, poorly fitted or top-dose-only effect, or another doubt; inactive = no such curve, though single readings can be large or run the other way. Potencies of inconclusive entries are doubtful fits and often do not repeat.
# Assay: qHTS of GLP-1 Receptor Inverse Agonists: Cytotox Screen
# Conditions: HEK293 cAMP-luciferase reporter cells, luminescence, 24 h; activity change, negative = inhibition: at 38.3 µM (top of the series) unless noted
# Summary of the method: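 Luminescence readout: signal drop marks cytotoxicity. Plated cells grew 12 h at 37 °C, 5% CO2, received 23 nL compound for 24 h, then got luciferase reagent, read after 12 min at RT.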
# % is set by controls: 0 for no effect and ±100 for the full control effect; potency is the fitted concentration of half-maximal effect.
SMILES,Potency,"activity change, negative = inhibition"
COc1ccc(C2C3=C(CCCC3=O)NC3=C2C(=O)c2ccccc23)cc1 (configuration not stated),"inconclusive: 3.98 µM [inhibitor, partial curve, poor fit]",–
O=C(COc1ccc(Cl)cc1Br)Nc1cccc(S(=O)(=O)N2CCCC2)c1,"inconclusive: 28.2 µM [inhibitor, single point]",–
COC(=O)c1ccccc1NC1=C/C(=N\S(=O)(=O)c2cccs2)c2ccccc2C1=O,"inconclusive: 10 µM [inhibitor, partial curve] and inconclusive: 10 µM [inhibitor, partial curve, poor fit]",–
C[C@@H]1CN([C@@H](C)CO)C(=O)Cc2cc(NC(=O)Nc3ccc(C(F)(F)F)cc3)ccc2O[C@@H]1CN(C)S(=O)(=O)c1ccc(Cl)cc1,"inconclusive: 10 µM [inhibitor, single point]",–
OC(c1ccccc1)(c1nc(-c2cc3ccccc3o2)cs1)C(F)(F)F (configuration not stated),"inconclusive: 7.08 µM [inhibitor, partial curve, poor fit]",–
O=C1C=CC(=O)N1CCCCCCCCCCN1C(=O)C=CC1=O,"inconclusive: 7.08 µM [inhibitor, partial curve, poor fit]",–
CC(C)NC(=S)Nc1ccc(Oc2ccccc2)cc1,"inconclusive: 10 µM [inhibitor, partial curve]",–
O=C(Cc1ccccc1)Nc1ccc2oc(-c3cccnc3)nc2c1,–,inactive: -6.12%
Cc1ccc(C)c(NC(=S)Nc2ncccc2C)c1,"inconclusive: 20 µM [inhibitor, single point]",–
CCN(C(=O)c1nn(-c2ccc(OC)c(Cl)c2)c(=O)c2c1c1ccccc1n2C)c1cc(OC)ccc1OC,–,inactive: 0%
NC(=O)c1ccc2c(c1)OCCO2,–,inactive: 21.6%
O=C(C1CCN(Cc2ccc(Cl)cc2)CC1)N1CCN(C(c2ccccc2)c2ccccc2)CC1,"inconclusive: 20 µM [inhibitor, single point]",–
Cc1c(Cl)c(-c2n[nH]c(=S)n2Cc2ccco2)nn1C,–,inactive: 3.12%
COc1cccc(C(=O)N2N=C(c3ccccn3)CC2(O)C(F)(F)F)c1 (configuration not stated),"inconclusive: 7.08 µM [inhibitor, partial curve, poor fit]",–
CCCCN1C2=NC(c3ccccc3)CN2c2ccccc21 (configuration not stated),"inconclusive: 10 µM [inhibitor, single point]",–
O=[N+]([O-])c1cc([N+](=O)[O-])c2oc(-c3ccccc3)c(Br)c2c1O,"inconclusive: 8.91 µM [inhibitor, partial curve, poor fit]",–
CCOc1cc(C(=O)Nc2ccc(S(=O)(=O)NC3=NCCCCC3)cc2)cc(Br)c1OC,"inconclusive: 11.2 µM [inhibitor, single point]",–

# Source: PubChem BioAssay AID624418 (National Center for Advancing Translational Sciences (NCATS), 2012)
